Inconclusive results and toxic doses are left out. A number of entries come with more than one value. They are shown here; other results are not. The source may hold further records. Values that stand side by side repeat one measurement in other runs, samples, wells, individuals or studies.
System: DBA/2 mice, P1534 leukemia ip, survival T/C
Test: NCI In Vivo Anticancer Drug Screen. Data for tumor model P1534 Leukemia (intraperitoneal) in DBA/2 mice
Conditions: endpoint: mean survival time; dose: 18.8 mg/kg/injection; schedule: Q01DX010 (ip); vehicle: saline; higher = longer survival
Protocol: The antitumor activity of compounds was measured in mice bearing transplantable tumors. Survival or tumor size were measured and the results are expressed as the measurement made in the treated group (T) divided by the measurement made in the vehicle treated control group (C). The tumor model used in this assay is P1534 Leukemia (intraperitoneal) in DBA/2 mice

SMILES: O=c1[nH]c(=O)n(C2CC(O)C(CO)O2)cc1F (stereo unspecified)
- T/C: 121 % of control and 165 % of control

— PubChem BioAssay AID314 (DTP/NCI, 2004)
